PubChem BioAssay AID686979 (National Center for Advancing Translational Sciences (NCATS), 2013)
Values joined by “and” are separate entries in the source; they are usually repeats but may differ in a detail not shown here. Equal values may be shown once. The whole screen tested about 420,000 compounds, of which about 50,000 (12%) were called active. Inconclusive means that the source gave no clear call. Such entries were picked first, then a sample of the others. The call rests on the fitted dose curve; in most records, active means well fitted inhibition curve with a large enough effect; inconclusive means small, poorly fitted or top-dose-only effect; inactive means flat fitted curve, though single readings scatter. A potency beside an inconclusive call is a rough fit, not a confirmed value.
On the % scale 0 is the no-effect control and ±100 the full control effect; potency means the concentration at half of the fitted maximal effect; tags describe the fitted curve by direction and shape.

Assay: qHTS for Inhibitors of human tyrosyl-DNA phosphodiesterase 1 (TDP1): qHTS in cells in presence of CPT; further: nearly all actives have a fitted effect of over 55% in size
Conditions: chicken DT40 Tdp1-/-;hTDP1 cells + 20 nM CPT, ATP luminescence, 48 h; activity change, negative = growth inhibition: at 46.2 µM (top of the series) unless noted
Summary of the method: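 Cell growth measured by CellTiter-Glo luminescence after a minimum 48 h, 37 C compound exposure with 20 nM CPT in Tdp1-knockout DT40 cells stably expressing hTDP1, seeded 400/well; qHTS titration format.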
In the case of `O=C(COc1ccccc1[N+](=O)[O-])OCC(=O)c1ccc(Br)s1`, the “activity change, negative = growth inhibition” value is reported as inactive: -17.4%.
For `COc1cc(NC(=O)c2ccccc2)c(OC)cc1NC(=O)CN1CCCCC1`, the Potency was inconclusive: 12.6 µM [inhibitor, partial curve].
For `O=C(COc1cccnc1[N+](=O)[O-])Nc1ccccc1Sc1ccccc1`, the Potency was inconclusive: 18.4 µM [inhibitor, single point].
For `CCN(CC)C(=O)Oc1ccc2c(=O)c(-c3ccc(OC)cc3)coc2c1`, the Potency was inconclusive: 11.6 µM [inhibitor, partial curve].
For `Cc1cccc(-c2nnn3c2nc(NCCc2ccc(S(N)(=O)=O)cc2)c2cc(Cl)ccc23)c1`, the Potency was active: 9.2 µM.
With `CCOc1cc(/C=C2/C(=N)N3OC(C)=CC3=NC2=O)ccc1OCCOc1ccccc1` the Potency was inconclusive: 29.1 µM [inhibitor, single point].
With `O=C(/C=C/c1ccco1)NCC(=O)N/N=C/c1ccc([N+](=O)[O-])cc1` the Potency was inconclusive: 29.1 µM [inhibitor, single point].
For `CC(=O)N1CCc2cc(S(=O)(=O)Nc3ccc(C)cc3C)ccc21`, the Potency was inconclusive: 18.4 µM [inhibitor, partial curve].
In the case of `CCCNC(=O)C1(C)CCN(C(=O)c2ccccc2OC)C1` (stereo not given), the “activity change, negative = growth inhibition” value is reported as inactive: -19.6%.
For `O=C(NCc1cccc(C(F)(F)F)c1)c1ccc2sc(COCCO)nc2c1`, the Potency was inconclusive: 16.4 µM [inhibitor, single point].
For `CC1(C)CCC2(C(=O)O)CC[C@]3(C)C(=CCC4[C@]5(C)CCC(O)C(C)(C)C5C(O)C[C@]43C)C2C1` (stereo not given in full), the “activity change, negative = growth inhibition” value was inactive: -2.26%.
In the case of `COc1ccccc1NS(=O)(=O)c1cccc(C(=O)N/N=C2\CC(=O)CC(C)(C)C2)c1`, the “activity change, negative = growth inhibition” value is reported as inactive: 1.64%.
With `O=C(O)c1c2c(nc3ccc(Cl)cc13)CCC2` the “activity change, negative = growth inhibition” value was inactive: 1.33%.
With `CCCCCCOC(=O)C1=C(C)NC(=O)NC1c1ccc(O)cc1` (stereo not given) the Potency was inconclusive: 29.1 µM [inhibitor, single point].
For `CCCN1CCC(C(=O)NC(c2ccc(F)cc2)c2ncccc2C)CC1` (stereo not given), the activity change, negative = growth inhibition was inconclusive: -35.8% [inhibitor].
In the case of `CCc1nc(N2CCN(C(=O)c3ccco3)CC2)c2oc3ccccc3c2n1`, the Potency is reported as active: 20.6 µM.
With `Cn1c(=O)c2c(ncn2CC(=O)N/N=C/c2cn[nH]c2-c2ccc(F)cc2)n(C)c1=O` the “activity change, negative = growth inhibition” value was inactive: -11%.
With `COc1ncc2nc(-c3cn(C)c4ccccc34)c(=O)n(Cc3ccc(F)cc3)c2n1` the “activity change, negative = growth inhibition” value was inactive: 10.5%.
For `O=C(c1ccc(-c2cccc(C(F)(F)F)c2)o1)N1CCCC(C(F)(F)F)C1` (stereo not given), the Potency was inconclusive: 10.3 µM [inhibitor, partial curve].
For `Cc1ccc(SCC(=O)Nc2cccnc2)cc1`, the Potency was inconclusive: 32.6 µM [inhibitor, single point].
With `Cc1sc2nc3ccc(N4CCCC4)nn3c(=O)c2c1C` the Potency was inconclusive: 29.1 µM [inhibitor, single point].
With `Cc1ccc2nc(-c3ccc(NC(=O)CSc4nc(N)cc(=O)[nH]4)cc3)sc2c1` the “activity change, negative = growth inhibition” value was inactive: -3.6%.
For `CCOC(=O)c1sc(NC(=O)c2cccc(S(=O)(=O)N(CC)CC)c2)cc1C`, the Potency was active: 2.59 µM.
In the case of `O=C(O)c1ccc(-n2c(-c3ccc(Br)cc3)n[nH]c2=S)cc1`, the “activity change, negative = growth inhibition” value is reported as inactive: 9.28%.
For `CCCCCn1c(=O)[nH]c2cc(C(=O)N3CCN(c4cccc(C)c4)C(C)C3)ccc2c1=O` (stereo not given), the Potency was active: 20.6 µM.
In the case of `COc1ccc(-c2nc3ccccc3nc2-c2ccc(OC)cc2)cc1`, the “activity change, negative = growth inhibition” value is reported as inactive: -21.8%.
With `CCN1C(=NCCOC)N[C@@H](c2ccccc2)[C@H](C(=O)OC)[C@H]1C` the Potency was inconclusive: 1.46 µM [inhibitor, full curve, poor fit].
In the case of `CCOC(=O)c1ccc(CN(Cc2ccc(C)cc2)S(=O)(=O)c2cccc([N+](=O)[O-])c2)cc1`, the “activity change, negative = growth inhibition” value is reported as inactive: 3.59%.
With `CCOc1ccc2[nH]c(=O)c(CN(CCN3CCCC3)C(=S)Nc3ccccc3OC)cc2c1` the “activity change, negative = growth inhibition” value was inactive: -28.9%.
With `COc1ccc2cc(C(=O)NCc3ccco3)c(=O)oc2c1` the “activity change, negative = growth inhibition” value was inactive: -20.4%.
For `Cc1cc(C(=O)CSc2nc3ccc(Cl)cc3[nH]2)c(C)n1CC1CCCO1` (stereo not given), the Potency was active: 9.2 µM.
In the case of `CC(=O)c1ccc(OCC(=O)c2ccc(-c3ccccc3)cc2)cc1`, the Potency is reported as inconclusive: 29.1 µM [inhibitor, single point].
In the case of `COc1ccc(S(=O)(=O)N(C)C[C@H]2Oc3c(NC(=O)C4CC4)cccc3C(=O)N([C@H](C)CO)C[C@@H]2C)cc1`, the Potency is reported as active: 16.4 µM.
In the case of `CCOc1ccccc1NC(=O)C1C(c2ccccc2)C1(Cl)Cl` (stereo not given), the Potency is reported as inconclusive: 25.9 µM [inhibitor, single point].
In the case of `COC(=O)c1cc2ccccc2c(-c2c(O)ccc3ccccc23)c1O`, the Potency is reported as inconclusive: 29.1 µM [inhibitor, partial curve, poor fit].
For `COc1ccc(N(C(=O)c2csnn2)C(C(=O)NC2CCCC2)c2cccs2)cc1` (stereo not given), the Potency was inconclusive: 1.64 µM [inhibitor, full curve].
For `O=C(CNC(=O)c1ccccc1)OC(C(=O)Nc1cc(C(F)(F)F)ccc1Cl)c1ccccc1` (stereo not given), the Potency was inconclusive: 12.6 µM [inhibitor, partial curve] and inconclusive: 35.5 µM [inhibitor, single point].
For `CCCCNc1c(-c2cccc(-c3cc(C(C)=O)cs3)c2)nc2ccc(C)cn12`, the Potency was active: 16.4 µM.
In the case of `CCC(C)(C)n1nnnc1C(c1cc2ccc(OC)cc2[nH]c1=O)N1CCCCC1` (stereo not given), the Potency is reported as inconclusive: 29.1 µM [inhibitor, partial curve].
For `Cc1cccc(Sc2c([N+](=O)[O-])ncn2C)c1`, the Potency was inconclusive: 29.1 µM [inhibitor, single point].
With `Cc1ccc2nc(Cl)c(/C=N/n3c(C)nnc3C)cc2c1` the Potency was inconclusive: 29.1 µM [inhibitor, single point].
In the case of `CCCCc1cc(=O)oc2cc(C)cc(OC(C)C(=O)NCc3ccncc3)c12` (stereo not given), the Potency is reported as inconclusive: 14.6 µM [inhibitor, partial curve].
For `CC(NC(=O)c1ccccc1NC(=O)c1nsc2ccccc12)c1ccccc1` (stereo not given), the Potency was inconclusive: 29.1 µM [inhibitor, single point].
For `Cc1ccc(C(C)(C)C)c(OCCN2CCCC2)c1`, the “activity change, negative = growth inhibition” value was inactive: 2.94%.
For `COc1ccccc1Oc1nc(-c2cccnc2)nc2ccccc12`, the Potency was inconclusive: 18.4 µM [inhibitor, partial curve].
